Experimental data as given in the RNAGym collection of RNA variant scans (doi:10.7554/elife.90254).
The source gives no read counts; variants with many changes may rest on few reads.

B1: LINE1-full (parent)
chain: UACGUAGGUGGUUUUCCCCUGAUAGUGCUAAGGGGGCCUGGAAGUUUGGACUGGGCAGAGCUCAACACAGCGUGGCAAAGUGGCUGUGGCUAGACUGCCUCUCUGGAUUCCUCGUCACUCAGCAGGGCAUCUCUGAGAGAAAUGCC

Variants of: B1
Assay: self-cleavage, relative activity (ratio to wild type); higher = more cleavage; in vitro, sequencing; the parent is a self-cleaving ribozyme

Row | Variant | self-cleavage
1 | UACGUAGGUGGUUUUCCCCUGAUAGUGCCAAGGGGGCCUGGAAGUUUGGACUGGGCAGAGCUCAACACAGCGUGGCAAAGUGGCUGUGGCAAGACUGCCUCUCUGGAUUCCUCGCCACUCAGCAGGGCAUCUCUGAGAGAAAUGCC [U29C U91A U115C] | 0.63
2 | UACGUAGGUGGUUUUCCCCUGAUAGUGCCAAGGGGGCCUGGAAGUUUGGACUGGGCAGAGCUCAACACAGCGUGGCAAAGUGGCUGUGGCCAGACUGCCUCUCUGGGUUCCUCGUCACUCAGCAGGGCAUCUCUGAGAGAAAUGCC [U29C U91C A107G] | 0.77
3 | UACGUAGGUGGUUUUCCCCUGAUAGUGCCAAGGGGGCCUGGAAGUUUGGACUGGGCAGAGCUCAACACAGCGUGGCAAAGUGGCUGUGGCCAGACUGCCUCUCUGGAUUCCUCGUCACUCAGCAGGGCAUCUCUGAGAGAAGUGCC [U29C U91C A142G] | 0.56
4 | UACGUAGGUGGUUUUCCCCUGAUAGUGCCAAGGGGGCCUGGAAGUUUGGACUGGGCAGAGCUCAACACAGCGUGGCAAAGUGGCUGUGGCUAGACGGCCUCUCUGGAUUCCUCGUCACUCAGCAGGGCAUCUCUGGGAGAAAUGCC [U29C U96G A136G] | 0
5 | UACGUAGGUGGUUUUCCCCUGAUAGUGCCAAGGGGGCCUGGAAGUUUGGACUGGGCAGAGCUCAACACAGCGUGGCAAAGUGGCUGUGGCUAGACUGCCUCACUGGAUUCCUCGUCACUCAGCGGGGCAUCUCCGAGAGAAAUGCC [U29C U102A A124G U134C] | 0
6 | UACGUAGGUGGUUUUCCCCUGAUAGUGCCAAGGGGGCCUGGAAGUUUGGACUGGGCAGAGCUCAACACAGCGUGGCAAAGUGGCUGUGGCUAGACUGCCUCUCUGGAUUCCCCAUCACUCAGCAGGGCAACUCUGAGAGAAAUGCC [U29C U112C G114A U130A] | 1.76
7 | UACGUAGGUGGUUUUCCCCUGAUAGUGCCAAGGGGGCCUGGAAGUUUGGACUGGGCAGAGCUCAACACAGCGUGGCAAAGUGGCUGUGGCUAGACUGCCUCUCUGGAUUCCUCGCCACUCAGCAGGGCGUCUCUGAGAGAAAUGCC [U29C U115C A129G] | 1.36
8 | UACGUAGGUGGUUUUCCCCUGAUAGUGCCAAGGGGGCCUGGAAGUUUGGACUGGGCAGAGCUCAACACAGCGUGGCAAAGUGGCUGUGGCUAGACUGCCUCUCUGGAUUCCUCGCCACUCAGCAGGGCAUCUCUGAGGGAAAUGCC [U29C U115C A138G] | 2.83
9 | UACGUAGGUGGUUUUCCCCUGAUAGUGCCAAGGGGGCCUGGAAGUUUGGACUGGGCAGAGCUCAACACAGCGUGGCAAAGUGGCUGUGGCUAGACUGCCUCUCUGGAUUCCUCGUCACUCAGCAGGGCACCUCAGAGAGAAAUGCC [U29C U130C U134A] | 1.17
10 | UACGUAGGUGGUUUUCCCCUGAUAGUGCCAAGGGGGCCUGGAAGUUUGGACUGGGCAGAGCUCAACACAGCGUGGCAAAGUGGCUGUGGCUAGACUGCCUCUCUGGAUUCCUCGUCACUCAGCAGGGCAUCACAGAGAGAAAUGCC [U29C U132A U134A] | 1.3
11 | UACGUAGGUGGUUUUCCCCUGAUAGUGCCAAGGGGGCCUGGAAGUUUGGACUGGGCAGAGCUCAACACAGCGUGGCAAAGUGGCUGUGGCUAGACUGCCUCUCUGGAUUCCUCGUCACUCAGCAGGGCAUCUCAGAGAGAAACGCC [U29C U134A U143C] | 0.8
12 | UACGUAGGUGGUUUUCCCCUGAUAGUGCGAAGGGGGCCUGGGAGUUUGGACUGGGCAGAGCUCAACACAGCGUGGCAAAGUGGCUGUGGCUAGACUGCCUCUCUGGUUUCCUCGUCACUCAGCAGGGCAUCUCUGAGAGAAAUGCC [U29G A42G A107U] | 1.45
13 | UACGUAGGUGGUUUUCCCCUGAUAGUGCGAAGGGGGCCUGGAAGUUUGGACUGGGCAGAGCUCAACACAGCGUGGCAAAGUGGCUGUGGCUAGACUGCCUCUCUGGAUUCCUCGUCACUCAGCAGGGCGUCUCUGAGAGAUAUGCC [U29G A129G A141U] | 1.09
14 | UACGUAGGUGGUUUUCCCCUGAUAGUGCGAAGGGGGCCUGGAAGUUGGGACUGGGCAGAGCUCAACACAGCGUGGCAAGGUGGCUGUGGCUAGACUGCCUCUCUGGAUUCCUCGUCACUCAGCAGGGCAUCUCUGAGAGAAAUGCC [U29G U47G A79G] | 0
15 | UACGUAGGUGGUUUUCCCCUGAUAGUGCGAAGGGGGCCUGGAAGUUUGGACUGGGCAGAGCUCAACACAGCGUGGCAAAGUGGCUGUGGCUAGACUGCCUCUCAGGAUUCCUCGUCACUCAGCUGGGCAUCUCUGAGAGAAAUGCC [U29G U104A A124U] | 0.95
16 | UACGUAGGUGGUUUUCCCCUGAUAGUGCUCAGGGGGCCUGGAAGUUUGGUCUGGGCAGAGCUCAACACAGCGUGGCAAAGUGGCUGUGGCCAGACUGCCUCUCUGGAUUCCUCGUCACUCAGCAGGGCAUCUCUGAGAGAAAUGCC [A30C A50U U91C] | 0
17 | UACGUAGGUGGUUUUCCCCUGAUAGUGCUCAGGGGGCCUGGAAGUUUGGACUGGGCAGAGCUCAACACAGCGUCGCAAAGUGGCUGUGGCUAGACUGCCUCUCUGGAUUCCUCGUCACUCAGCAGGGCAUCUCUGAGAGAGAUGCC [A30C G74C A141G] | 0.49
18 | UACGUAGGUGGUUUUCCCCUGAUAGUGCUCAGGGGGCCUGGAAGUUAGGACUGGGCAGAGCUCAACACAGCGUGGCAAAGUGGCUGUGGCUAGACUGCCUCUCUGGAUUCCUCGACACUCAGCAGGGCAUCUCUGAGAGAAAUGCC [A30C U47A U115A] | 1.57
19 | UACGUAGGUGGUUUUCCCCUGAUAGUGCUCAGGGGGCCUGGAAGUUUGGACUGGGCAGAGCUCAACACAGCGUGGCAAAGUGGCAGUGGCUAGACUGCCUCUCUGGAUCCCUCGUCACUCAGCAGGGCAUCUCUGAGAGAAAUGCC [A30C U85A U109C] | 0.1
20 | UACGUAGGUGGUUUUCCCCUGAUAGUGCUGGGGGGGCCUGGAAGUUUGGACUGGGCAGAGCUCAACUCAGCGUGGCAAAGUGGCUGUGGCUAGACUGCCUCUCUGGAUUCCUCGUCACUCAGCAGGGCAUCUCUGAGAGAAAUGCC [A30G A31G A67U] | 0

Row | Variant | self-cleavage
21 | UACGUAGGUGGUUUUCCCCUGAUAGUGCUGAGGGGGCCUGGGGGUUUGGACUGGGCAGAGCUCAACACAGCGUGGCAAAGUGGCAGUGGCUAGACUGCCUCUCUGGAUUCCUCGUCACUCAGCAGGGCAUCUCUGAGAGAAAUGCC [A30G A42G A43G U85A] | 0
22 | UACGUAGGUGGUUUUCCCCUGAUAGUGCUGAGGGGGCCUGGGAGUUUGGACUGGGCAGAGCUCAACACAGCGUGGCGAAGUGGCUGUGGCUAGACUGCCUCUCUGGAUUCCUCGUCACUCUGCAGGGCAUCUCUGAGAGAAAUGCC [A30G A42G A77G A121U] | 0.71
23 | UACGUAGGUGGUUUUCCCCUGAUAGUGCUGAGGGGGCCUGGGAGUUUGGACUGGGCAGAGCUCAACACAGCGUGGCAAAGUGGCUGUGGCUAGACUGCCUCUCUGGAUUCCUCGUCACUCAGCAGGGCAUCUCUGAGAGAGAUGCC [A30G A42G A141G] | 0.31
24 | UACGUAGGUGGUUUUCCCCUGAUAGUGCUGAGGGGGCCUGGGAGUUUGGACUGGGCAGAGCUCAACACAGCGUGGCAAAGUGGCUGUGGCUAGACUGCCUCUCUGGAUUCCUCGCCACUCAGCAGGGCAUCUCUGAGAGAAAUGCC [A30G A42G U115C] | 0.4
25 | UACGUAGGUGGUUUUCCCCUGAUAGUGCUGAGGGGGCCUGGUAGUUUGGACUGGGCAGAGCUCAACACAGCGUGGCAAAGCGACUGUGGCUAGACUGCCUCUCUGGAUUCCUCGUCACUCAGCAGGGCAUCUCUGAGAGAAAUGCC [A30G A42U U81C G83A] | 0.89
26 | UACGUAGGUGGUUUUCCCCUGAUAGUGCUGAGGGGGCCUGGAGGUUUGGACUGGGCAGAGCUCAACACAGCGUGGCAAAGUGGCUGUGGCUAGACUGCCUCUCUGGAUUCCUCGUCACUCAGCAGGGCGUCUCUGAGAGAAAUGCC [A30G A43G A129G] | 1.23
27 | UACGUAGGUGGUUUUCCCCUGAUAGUGCUGAGGGGGCCUGGAGGUUUGGACUGGGCAGAGCUCAACACAGCAUGGCAAAGUGGCUGUGGCUAGACUGCCUCUCUGGAUUCCACGUCACUCAGCAGGGCAUCUCUGAGAGAAAUGCC [A30G A43G G72A U112A] | 1.23
28 | UACGUAGGUGGUUUUCCCCUGAUAGUGCUGAGGGGGCCUGGAGGUUAGGACUGGGCAGAGCUCAACACAGCGUGGCAAAGUGGCUGUGGCUAGACUGCCUCUCUGGAUUCCUCGUCACUCAGCAGGGCAUCUCUGAGAGAAAUGCC [A30G A43G U47A] | 1.04
29 | UACGUAGGUGGUUUUCCCCUGAUAGUGCUGAGGGGGCCUGGAGGUUUGGACUGGGCAGAGCUCAACACAGCGUGGCAAAGUGGCUGUGGCUAGACAGCCUCUCUGGAUUCCUCGUCACUCAGCAGGGCAUCUCUGAGAGAAAUGCC [A30G A43G U96A] | 0.05
30 | UACGUAGGUGGUUUUCCCCUGAUAGUGCUGAGGGGGCCUGGAAGUUUGGGCUGGGCAGAGCUCAACACAGCGUGGCAAAGUGGCUGUGGCUUGACUGCCUCUCUGGAUUCCUCGUCACUCAGCAGGGCAUCUCUGAGAGAAAUGCC [A30G A50G A92U] | 0
31 | UACGUAGGUGGUUUUCCCCUGAUAGUGCUGAGGGGGCCUGGAAGUUUGGGCUGGGCAGAGCUCAACACAGCGUGGCAAAGUGGCUGUGGCUAGACUGCCUCUCUGGAUUCCUCGUCACUUAGCAGGGCAUCUCUGAGAGAAAUGCC [A30G A50G C120U] | 0.95
32 | UACGUAGGUGGUUUUCCCCUGAUAGUGCUGAGGGGGCCUGGAAGUUUGGUCUGGGCGGAGCUCAACACAGCGUGGCAAAGUGGCUGUGGCUAGAAUGCCUCUCUGGAUUCCUCGUCACUCAGCAGGGCAUCGCUGAGAGAAAUGCC [A30G A50U A57G C95A U132G] | 0.17
33 | UACGUAGGUGGUUUUCCCCUGAUAGUGCUGAGGGGGCCUGGAAGUUUGGACUGGGCGGAGCUCAACCCAGCGUGGCAAAGUGGCUGUGGCUAGACUGCCUCUCUGGAUUCCUCGUCACUCAGCAGGGCAUCUCUGAGAGAAAUGCC [A30G A57G A67C] | 0
34 | UACGUAGGUGGUUUUCCCCUGAUAGUGCUGAGGGGGCCUGGAAGUUUGGACUGGGCGGAGCUCAACACAGCGUGGCAAAGUGGCUGUGGCUAGACUGCCUCUCUGGAUUCCUCGUCACUCAGCAGGGCAUCUCUGUGAGAAAUGCC [A30G A57G A136U] | 0.54
35 | UACGUAGGUGGUUUUCCCCUGAUAGUGCUGAGGGGGCCUGGAAGUUUGGACUGGGCGGAGCUCAACACAGCGUGGCAAAGUGGCUGUGGCUAGAGUGCCUCUCUGGAUUCCUCGUCACUCAGCAGGGCAUCUCUGAGAGAAAUGCC [A30G A57G C95G] | 0.06
36 | UACGUAGGUGGUUUUCCCCUGAUAGUGCUGAGGGGGCCUGGAAGUUUGGACUGGGCGGAGCUCAACACAGCGUGGCAAAGUGGCUGUGGCUAGACUGCCUCUCUGGAUUCCUCGCCACUCAGCAGGGCAUCUCUGAGGGAAAUGCC [A30G A57G U115C A138G] | 0.71
37 | UACGUAGGUGGUUUUCCCCUGAUAGUGCUGAGGGGGCCUGGAAGUUUGGACUGGGCUGAGCUCAACACGGCGUGGCAAAGUGGCUGUGGCUAGACUGCCUCUCUGGAUUCCUCGUCACUCAGCAGGGCAUCUCUGAGAGAAAUGCC [A30G A57U A69G] | 0
38 | UACGUAGGUGGUUUUCCCCUGAUAGUGCUGAGGGGGCCUGGAAGUUUGGACUGGGCUGAGUUCAACACAGCGUGGCAAAGUGGCUGUGGCUAGACUGCCUCUCUGGAUUCCUCGACACUCAGCAGGGCAUCUCUGAGAGGAAUGCC [A30G A57U C61U U115A A140G] | 0.08
39 | UACGUAGGUGGUUUUCCCCUGAUAGUGCUGAGGGGGCCUGGAAGUUUGGACUGGGCAGGGCUCAACACAGCGUGGCAAAGUGGCUGUGGCUAGACUGCCUCUCUGGAUUCCUCGUCACUCAGCCGGGCAUCUCUGAGAGGAAUGCC [A30G A59G A124C A140G] | 0.77
